Laboratory results from patent publication US10322110B2, “Imidazole-based antimicrobial agents” (priority 2014, dated 2019).

Tests used:
Format in all cases: cell-based
[1] = system: Staphylococcus aureus MRSA (COL); assay: broth microdilution MIC assay, Staphylococcus aureus MRSA (COL); details: MIC100 class score, 24 h
[2] = system: Human keratinocytes (HaCaT cells); assay: human cytotoxicity assay in vitro (CellTiter-Glo), keratinocytes; parameters: key: 4: compounds inhibiting cell viability 50% or more at concentrations of 5 μM or less; 3: compounds causing more than 50% inhibition of cell viability at 10 μM; compounds causing >50% inhibition of cell viability at 25 μM; 1: compounds causing less than 50% inhibition of cell viability at 50 μM; compounds not causing loss of cell viability at concentrations of 50 μM or higher; details: cytotoxicity class
[3] = system: Staphylococcus aureus MSSA (Newman); assay: broth microdilution MIC assay, Staphylococcus aureus MSSA (Newman); details: MIC100 class score, 24 h
[4] = system: Streptococcus pneumoniae (Chester, ATCC49619); assay: broth microdilution MIC assay, Streptococcus pneumoniae; details: MIC100 class score, 24 h
[5] = system: Human hepatocytes (HepaRG cells); assay: human cytotoxicity assay in vitro (CellTiter-Glo), hepatocytes; details: cytotoxicity class

SMILES | Antibacterial activity Staphylococcus aureus (MRSA) [1] | cytotoxicity cell line K (keratinocytes) [2] | Antibacterial activity Staphylococcus aureus (MSSA) [3] | Antibacterial activity Streptococcus pneumoniae [4] | cytotoxicity cell line H (hepatocytes) [5]
Cc1[nH]c(-c2cc(C)n(-c3ccc(Cl)cc3)c2C)nc1-c1ccccc1 [Compound 8] | 1 (MIC100 of 20-50 μg/ml or an MIC50 of <10 μg/ml) | 1 | – | – | –
Cc1[nH]c(-c2cc(C)n(-c3ccc(F)cc3F)c2C)nc1-c1ccccc1 [Compound 9] | 1 (MIC100 of 20-50 μg/ml or an MIC50 of <10 μg/ml) | 2 | – | – | –
Cc1nc(-c2ccc(-c3ccc(Cl)cc3Cl)o2)[nH]c1-c1ccc(F)cc1 [Compound 16] | – | 1 | 4 (MIC of ≥1 μg/ml to 3 μg/ml for preventing staphylococcal growth 100% (MIC100)) | – | –
Cc1[nH]c(-c2ccc(-c3ccccc3OC(F)(F)F)o2)nc1-c1ccc(F)cc1 [Compound 23, 4-(4-Fluoro-phenyl)-5-methyl-2-[5-(2-trifluoromethoxy-phenyl)-furan-2-yl]-1H-imidazole] | 4 (MIC of ≥1 μg/ml to 3 μg/ml for preventing staphylococcal growth 100% (MIC100)) | 2 | – | 4 (MIC of 1 μg/ml or less for preventing streptococcal growth 100% (MIC100)) | –
C#Cc1ccc(-c2nc(-c3ccc(-c4ccccc4C(F)(F)F)o3)[nH]c2C)cc1 [Compound 27] | – | 2 | – | 4 (MIC of 1 μg/ml or less for preventing streptococcal growth 100% (MIC100)) | 1 (compounds not causing a loss of viability at concentrations between 25 and 50 μM)
Cc1[nH]c(-c2ccn(-c3ccccc3C(F)(F)F)c2)nc1-c1ccccc1 [Compound 33] | 1 (MIC100 of 20-50 μg/ml or an MIC50 of <10 μg/ml) | 3 | – | – | –
Cc1[nH]c(-c2ccc(-c3ccc(C(F)(F)F)cc3)o2)nc1-c1ccccc1 [Compound 45] | – | 1 | – | – | 1 (compounds not causing a loss of viability at concentrations between 25 and 50 μM)
Cc1[nH]c(-c2ccc(-c3ccc(OC(F)(F)F)c(Cl)c3)o2)nc1-c1ccc(Cl)cc1 [Compound 50] | – | 1 | – | – | 1 (compounds not causing a loss of viability at concentrations between 25 and 50 μM)
Cc1[nH]c(-c2ccc(-c3ccc(OC(F)(F)F)cc3Cl)o2)nc1-c1ccc(F)cc1 [Compound 51] | 1 (MIC100 of 20-50 μg/ml or an MIC50 of <10 μg/ml) | 3 | – | – | –
Cc1ccc(-c2ccc(-c3nc(-c4ccccc4)c(C)[nH]3)s2)cc1 [Compound 54] | – | 1 | – | – | 1 (compounds not causing a loss of viability at concentrations between 25 and 50 μM)
Cc1ccc(-c2nc(-c3nc(-c4ccccc4)c(C)[nH]3)cs2)cc1 [Compound 56] | – | 3 | – | – | 1 (compounds not causing a loss of viability at concentrations between 25 and 50 μM)
Cc1ccc(-c2nc(-c3nc(-c4ccccc4)c(C)[nH]3)co2)cc1 [Compound 57] | – | 3 | – | – | 1 (compounds not causing a loss of viability at concentrations between 25 and 50 μM)
Cc1[nH]c(-c2ccc(-c3ccccc3)s2)nc1-c1ccccc1 [Compound 74] | – | 3 | – | – | 1 (compounds not causing a loss of viability at concentrations between 25 and 50 μM)
Cc1[nH]c(-c2ccc(-c3ccccc3OC(F)(F)F)o2)nc1-c1ccc(O)cc1 [Compound 76] | 4 (MIC of ≥1 μg/ml to 3 μg/ml for preventing staphylococcal growth 100% (MIC100)) | – | – | – | –
FC(F)(F)c1ccccc1-c1ccc(-c2nc3c([nH]2)CCCC3)o1 [Compound 87] | 4 (MIC of ≥1 μg/ml to 3 μg/ml for preventing staphylococcal growth 100% (MIC100)) | – | – | 4 (MIC of 1 μg/ml or less for preventing streptococcal growth 100% (MIC100)) | –
FC(F)(F)Oc1ccccc1-c1ccc(-c2nc3c([nH]2)CCCC3)o1 [Compound 88] | 4 (MIC of ≥1 μg/ml to 3 μg/ml for preventing staphylococcal growth 100% (MIC100)) | – | – | 4 (MIC of 1 μg/ml or less for preventing streptococcal growth 100% (MIC100)) | –
CCCc1[nH]c(-c2ccc(-c3ccccc3OC(F)(F)F)o2)nc1C [Compound 89] | 4 (MIC of ≥1 μg/ml to 3 μg/ml for preventing staphylococcal growth 100% (MIC100)) | – | – | 4 (MIC of 1 μg/ml or less for preventing streptococcal growth 100% (MIC100)) | –
CCCCc1nc(-c2ccc(-c3ccccc3C(F)(F)F)o2)[nH]c1C [Compound 90] | 4 (MIC of ≥1 μg/ml to 3 μg/ml for preventing staphylococcal growth 100% (MIC100)) | – | – | – | –
CCCCc1[nH]c(-c2ccc(-c3ccccc3OC(F)(F)F)o2)nc1C [Compound 91] | 4 (MIC of ≥1 μg/ml to 3 μg/ml for preventing staphylococcal growth 100% (MIC100)) | – | – | 4 (MIC of 1 μg/ml or less for preventing streptococcal growth 100% (MIC100)) | –
Cc1nc(-c2ccc(-c3ccccc3C(F)(F)F)o2)[nH]c1CC(C)C [Compound 92] | 4 (MIC of ≥1 μg/ml to 3 μg/ml for preventing staphylococcal growth 100% (MIC100)) | – | – | 4 (MIC of 1 μg/ml or less for preventing streptococcal growth 100% (MIC100)) | –
CCCc1[nH]c(-c2ccc(-c3ccccc3Cl)o2)nc1C [Compound 95] | 4 (MIC of ≥1 μg/ml to 3 μg/ml for preventing staphylococcal growth 100% (MIC100)) | – | – | 4 (MIC of 1 μg/ml or less for preventing streptococcal growth 100% (MIC100)) | –
CCCc1[nH]c(-c2ccc(-c3ccccc3Br)o2)nc1C [Compound 96] | 4 (MIC of ≥1 μg/ml to 3 μg/ml for preventing staphylococcal growth 100% (MIC100)) | – | – | 4 (MIC of 1 μg/ml or less for preventing streptococcal growth 100% (MIC100)) | –
CCCc1nc(-c2ccc(-c3cccc(C(F)(F)F)c3)o2)[nH]c1C [Compound 99] | 4 (MIC of ≥1 μg/ml to 3 μg/ml for preventing staphylococcal growth 100% (MIC100)) | – | – | 4 (MIC of 1 μg/ml or less for preventing streptococcal growth 100% (MIC100)) | –
CCCc1[nH]c(-c2ccc(-c3ccccc3C(F)(F)F)o2)nc1C [Compound 101] | 4 (MIC of ≥1 μg/ml to 3 μg/ml for preventing staphylococcal growth 100% (MIC100)) | – | – | – | –
CCCc1[nH]c(-c2ccc(-c3cc4ccccc4o3)o2)nc1C [Compound 106] | 4 (MIC of ≥1 μg/ml to 3 μg/ml for preventing staphylococcal growth 100% (MIC100)) | – | – | 4 (MIC of 1 μg/ml or less for preventing streptococcal growth 100% (MIC100)) | –
CCCc1[nH]c(-c2ccc(-c3ccc(N4CCN(C)CC4)cc3)o2)nc1C [Compound 107] | 1 (MIC100 of 20-50 μg/ml or an MIC50 of <10 μg/ml) | – | – | – | –
Cc1nc(-c2cc(C)n(-c3ccccc3F)c2C)[nH]c1-c1ccccc1 [Compound 119] | 1 (MIC100 of 20-50 μg/ml or an MIC50 of <10 μg/ml) | – | – | – | –
